# Laboratory results taken from PubChem BioAssay AID686979 (National Center for Advancing Translational Sciences (NCATS), 2013).
# “And” between values parts separate entries of the source, which are not always exact repeats. Identical values can stand only once. The campaign covered roughly 420,000 compounds. About 50,000 (12%) were called active. Inconclusive results, whose numbers are uncertain, are shown with a selection of clear calls. Calls come from the whole dose curve; as a rule, active = well fitted inhibition curve with a large enough effect; inconclusive = small, poorly fitted or top-dose-only effect; inactive = flat fitted curve, though single readings scatter. Potencies of inconclusive entries are left out as doubtful fits.
# Experiment: qHTS for Inhibitors of human tyrosyl-DNA phosphodiesterase 1 (TDP1): qHTS in cells in presence of CPT; note: nearly all actives have a fitted effect of over 55% in size
# Conditions: chicken DT40 Tdp1-/-;hTDP1 cells + 20 nM CPT, ATP luminescence, 48 h
# Outline: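 Cell growth measured by CellTiter-Glo luminescence after a minimum 48 h, 37 C compound exposure with 20 nM CPT in Tdp1-knockout DT40 cells stably expressing hTDP1, seeded 400/well; qHTS titration format.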
# [1] = activity change, negative = growth inhibition: at 46.2 µM (top of the series) unless noted
# % is set by controls: 0 for no effect and ±100 for the full control effect; potency is the fitted concentration of half-maximal effect; tags give direction and shape of the fitted curve.
compound,measurement,setting,value
O=S(=O)(Nc1ccc(S(=O)(=O)Nc2ccccc2)cc1)c1ccccc1,Potency,[1],"inconclusive [inhibitor, single point]"
COc1cc(CN2CCC(C)CC2)ccc1OCc1ccccc1,Potency,[1],"inconclusive [inhibitor, partial curve]"
O=C(CCOc1ccccc1)Nc1ccnn1C1CCN(CCc2ccccc2)CC1,Potency,[1],"inconclusive [inhibitor, full curve, poor fit]"
Cc1ccc(OCC(=O)Nc2ccccc2N2CCCC2)c(C)c1,"activity change, negative = growth inhibition",[1],inconclusive: -35.2% [inhibitor]
Cc1cnccc1/C=C/c1ccc(N)cc1,Potency,[1],"inconclusive [inhibitor, single point]"
COc1ccc(C2C(C#N)=C(N)Oc3cc(O)ccc32)cc1C (centres undefined),Potency,[1],"inconclusive [inhibitor, partial curve]"
Brc1ccc2nc(-c3ccco3)c(Cc3ccsc3)n2c1,Potency,[1],"inconclusive [inhibitor, single point]"
O=C(NCc1nnc(SCC(=O)N2CCCc3ccccc32)o1)c1ccccc1F,Potency,[1],inactive
Cn1nccc1C(=O)NCc1ccc2c(c1)CCN2C(=O)c1ccccc1,Potency,[1],inactive
Cc1ccc(C2=CC(c3ccc(N(C)C)cc3)n3nnnc3N2)cc1 (centres undefined),Potency,[1],active: 18.4 µM
O=C(Nc1ccc(S(=O)(=O)NCC2CCCO2)cc1)c1ccc(F)cc1 (centres undefined),Potency,[1],active: 14.6 µM
CC(C)(C)OC(=O)N1CCC(c2c(C(=O)NC3CCCCC3)cnn2-c2cccc(Cl)c2)CC1,Potency,[1],"inconclusive [inhibitor, single point]"
COc1ccc(N2C(c3ccsc3)=Cc3cc4c(cc3C2c2c[nH]c3ccccc23)OCO4)cc1 (centres undefined),Potency,[1],"inconclusive [inhibitor, single point]"
Cc1ccc(S(=O)(=O)N2CCCCC2)cc1C(=O)OCC(=O)N1c2ccccc2NC(=O)C1(C)C,Potency,[1],"inconclusive [inhibitor, single point]"
Cc1c(C(=O)N2CCC(C)CC2)c(S(=O)(=O)N2CCN(c3ccc(Cl)cc3)CC2)c(C)n1C,Potency,[1],"inconclusive [inhibitor, single point]"
COc1cnc(-c2ccccc2)nc1Oc1cccc(C)c1C,Potency,[1],"inconclusive [inhibitor, single point]"
O=C(Cc1c(F)cccc1Cl)N1CCN(C(=O)c2ccco2)CC1,Potency,[1],"inconclusive [inhibitor, full curve, poor fit]"
Cc1ccc2nc(-c3ccncc3)cc(C(=O)Nc3ccc4c(c3)OCCO4)c2c1,Potency,[1],active: 18.4 µM
CN(Cc1ccccc1)Cc1nc2c(c(=O)n(C)c(=O)n2C)n1Cc1ccc(F)cc1,Potency,[1],"inconclusive [inhibitor, single point]"
CC1C(=O)N2CCCc3cc(NS(=O)(=O)c4ccc(F)cc4)cc1c32 (centres undefined),Potency,[1],inactive
CCOC(=O)c1[nH]c(C)c(C(=O)OCC(=O)NC(C)c2ccc(F)cc2)c1C (centres undefined),Potency,[1],active: 1.64 µM
CC1CCCN(CCCNC(=O)CN2C(=O)CSc3ccc(S(=O)(=O)N4CCOCC4)cc32)C1 (centres undefined),Potency,[1],inactive
COc1cc(/C=C/C(=O)Nc2ccc(S(=O)(=O)Nc3onc(C)c3C)cc2)cc(OC)c1OC,Potency,[1],inactive
CCN(CC(=O)Nc1ccc(NC(C)=O)cc1)C(=O)c1ccccc1CCc1ccccc1,Potency,[1],"inconclusive [inhibitor, single point]"
COc1ccc(N(CC(=O)NCCSCc2ccccc2Cl)S(C)(=O)=O)cc1Cl,Potency,[1],active: 11.6 µM
COCCCNC(NC(=O)c1ccc(Cl)cc1)C(Cl)(Cl)Cl (centres undefined),Potency,[1],"inconclusive [inhibitor, partial curve, poor fit]"
COc1cccc(CNC(=O)CCCN2C(=O)C(c3ccccc3)Oc3cccnc32)c1OC (centres undefined),Potency,[1],"inconclusive [inhibitor, partial curve]"
Cc1cccc(N2CCN(C(C(=O)NCc3ccccc3)c3ccc(C(F)(F)F)cc3)CC2)c1C (centres undefined),Potency,[1],"inconclusive [inhibitor, single point]"
O=C(c1ccccc1F)N1CCCC(C(=O)N2CCc3ccccc3C2)C1 (centres undefined),Potency,[1],inactive
COc1cccc(CNc2nc3cc(-c4cccc(Cl)c4)sc3c(=O)n2C)c1OC,Potency,[1],"inconclusive [inhibitor, single point]"
O=S(=O)(Nc1cc(S(=O)(=O)N2CCOCC2)ccc1NCC1CCCO1)c1ccc(F)cc1 (centres undefined),Potency,[1],inactive
COC(=O)N1C(=O)[C@@](c2ccccc2)(C2CCCC2)N1C(=O)OC,Potency,[1],active: 14.6 µM
O=C(Cn1ncc2c3ccccc3n(Cc3ccccc3F)c2c1=O)NCCCN1CCCC1=O,Potency,[1],"inconclusive [inhibitor, single point]"
c1cc(-c2ccsc2)n2cnnc2c1,Potency,[1],inactive
COC(=O)c1c(-c2cc(OC)cc(OC)c2)sc2ccc(OC)cc12,Potency,[1],"inconclusive [inhibitor, single point]"
COc1ccc([N+](=O)[O-])cc1N(CC(O)CN1CCCCC1)S(=O)(=O)c1ccc(C)cc1 (centres undefined),Potency,[1],inactive
COc1ccc(C(=O)/C=C/c2ccc(N3CCCCC3)c([N+](=O)[O-])c2)c(OC)c1,Potency,[1],"inconclusive [inhibitor, partial curve, poor fit]"
CN1C(=O)Cc2cc(S(=O)(=O)NCCc3ccccc3)ccc21,"activity change, negative = growth inhibition",[1],inconclusive: -36.2% [inhibitor]
same,"activity change, negative = growth inhibition",at 46.2 µM (top of the series),inactive: -14.6%
CC1=Cc2ccccc2C(C#N)N1C(=O)c1ccccc1 (centres undefined),Potency,[1],active: 20.6 µM
COC(=O)c1ccc(N2CCN(C)CC2)c(NC(=O)c2ccc(-c3ccc(Cl)cc3)o2)c1,Potency,[1],"inconclusive [inhibitor, single point]"
CCc1ccc(OCC(=O)N(Cc2ccc(OC)cc2)C2CCS(=O)(=O)C2)cc1 (centres undefined),Potency,[1],"inconclusive [inhibitor, single point]"
O=C(CCn1c(=O)c2cccn2c2cccnc21)N1CCN(c2cccc(Cl)c2)CC1,Potency,[1],active: 23.1 µM and active: 18.4 µM
Cc1nc(Nc2ccc3c(c2)OCO3)c2oc3ccccc3c2n1,Potency,[1],"inconclusive [inhibitor, single point]"
